Among all 150,000 compounds or so, about 540 (0.36%) showed an effect of 50% or more. Some of the results follow.

The test system of this assay is Plasmodium falciparum. In words: Primary screen in NF54 nanoGlo assay, in single point, at 2uM, 72h; a lower Z score goes with more inhibition. It counts as functional, Erythrocyte. Particulars: timepoint 72 hour.
Consider `CCc1cc(C(=O)N2CCC3(CC2)[C@H](O)C[C@@H]3O)ccn1`, for which the % Inhibition (commonly the drop in the measured response relative to a control, in per cent) is listed as -9% and the Z score is on record as 1.14.

As to `CCN(Cc1[nH]nc(C)c1Cl)C1CCOCC1`, the “% Inhibition” value is 8% and the Z score is -1.6.

On to `CC(OCC1CCCO1)C(=O)N1CCC(=O)c2cc(O)ccc21` (stereo unspecified), for which the “% Inhibition” value is -14% and the Z score is listed as 2.82.

With `CCN(C(=O)[C@@H]1COCCO1)c1ccc(Br)cn1`, the “% Inhibition” value is -5% and the Z score was 0.61.

`CN(C)C(=O)CCc1cc2ccccc2nc1O`: the “% Inhibition” value is -8% and the Z score stood at 1.52.

Consider `Cc1nccn1CCN(C)c1cc(NC2CC2)nc(N)n1`, for which the “% Inhibition” value is on record as -1% and the Z score worked out at 0.14.

Turning to `O=C([C@@H]1COc2cc(S(=O)(=O)N3CCC(Cc4ccccc4)CC3)ccc2O1)N1CCOCC1`, the “% Inhibition” value was -5% and the Z score turned out to be 0.53.

For the compound `C[C@@H](CCc1ccccc1)NC(=O)c1n[nH]c(=O)c2ccccc12`, the “% Inhibition” value was -9% and the Z score turned out to be 1.65.

Turning to `O=C(NCc1ccon1)c1cccc(S(=O)(=O)N[C@H]2CCOC2)c1`, the “% Inhibition” value is reported as -15% and the Z score is recorded as 2.25.

In the case of `Cn1ccc(CCNC(=O)c2cnsn2)n1`, the “% Inhibition” value is recorded as -6% and the Z score is given as 0.76.

As to `CN(CC=CCN(C)c1ccn(C)n1)c1ccn(C)n1`, the “% Inhibition” value is recorded as -10% and the Z score came out at 1.16.

For the compound `Cn1cc(C(=O)N[C@H]2CC(=O)N(Cc3cccc4ccccc34)C2)ccc1=O`, the “% Inhibition” value is recorded as -2% and the Z score came to 0.29.

For `CC1CCN(S(=O)(=O)c2ccc3c(ccc(=O)n3CC(=O)NCc3ccccn3)c2)CC1`, the “% Inhibition” value is given as -15% and the Z score worked out at 1.89.

On to `CC(C)CCNC(=O)c1[nH]cnc1C(=O)N1C[C@@H](C)O[C@@H](C)C1`, for which the “% Inhibition” value is listed as 15% and the Z score is -1.77.

`COCCC(=O)NCc1sc(COC)nc1C`: the “% Inhibition” value is recorded as -3% and the Z score is reported as 0.36.

With `COc1ccc([C@@H]2CCCN2C(=O)c2cnsn2)cc1OC`, the “% Inhibition” value is -5% and the Z score came to 0.49.

Take `Cc1cc(C)n(CCN2CCC[C@@H]2CNC(=O)OC(C)(C)C)n1`: the “% Inhibition” value is on record as 2% and the Z score is given as -0.18.

Consider `CC(C)(C)OC(=O)NC1CCCC1NC1CC2CCC1O2` (stereo unspecified), for which the “% Inhibition” value was -7% and the Z score is reported as 1.3.

`Cc1nc2c(c(N(C)C[C@H]3CCN(C)C3)n1)Cc1ccccc1OC2`: the “% Inhibition” value was -13% and the Z score was determined as 2.52.

Take `COc1ccc(N2CCN(C[C@H]3CCOC3)CC2(C)C)cc1`: the “% Inhibition” value was -6% and the Z score was 1.02.

With `CCCCC(=O)N1CCC[C@H]1c1nnc(C(=O)Nc2ccc3c(c2)OCO3)s1`, the “% Inhibition” value was -11% and the Z score is 1.22.

For the compound `CCc1cc(Cl)ccc1NC(=O)NC[C@H](O)CN(C)C`, the “% Inhibition” value was -1% and the Z score worked out at 0.16.

`COc1cccc(CN2CC=C(C(=O)N3CCN(c4ccccc4Cl)CC3)CC2)c1`: the “% Inhibition” value is recorded as -3% and the Z score was 0.52.

With `Cc1noc(COCC(=O)N[C@@H](CNC(=O)OC(C)(C)C)c2ccc3ccccc3c2)n1`, the “% Inhibition” value is recorded as -5% and the Z score was 0.56.

Consider `Cc1ccccc1CNC(=O)c1ccc(S(=O)(=O)N2CCC(C)CC2)s1`, for which the “% Inhibition” value was -2% and the Z score is 0.27.

`COc1ccc(NC(=O)c2ccccc2NC(=O)C(=O)N2CCOCC2)cc1`: the “% Inhibition” value was -17% and the Z score was 2.21.

With `CNC(=O)Cc1csc(NC(=O)CCn2cnnn2)n1`, the “% Inhibition” value is -13% and the Z score amounted to 1.64.

With `CCCn1cc(CNC(=O)[C@H]2CCCN(c3nnc4cccc(C)n34)C2)c(C)n1`, the “% Inhibition” value is recorded as -12% and the Z score is listed as 2.05.

In the case of `Cc1csc(CCC(=O)N2CC(O)CC2c2ccccc2)n1` (stereo unspecified), the “% Inhibition” value was -12% and the Z score is on record as 2.

For the compound `COc1ccc(NC(=O)N2CCC[C@H](Oc3ccncc3Cl)C2)cc1OC`, the “% Inhibition” value is on record as 1% and the Z score is given as -0.12.

As to `O=S(=O)(Nc1ccccc1-c1cn2c(n1)CCCC2)N1CCCC1`, the “% Inhibition” value is listed as -10% and the Z score is 1.17.

For the compound `CC1(S(=O)(=O)NCc2nc(C(F)(F)F)c[nH]2)CC1`, the “% Inhibition” value is on record as -5% and the Z score amounted to 0.96.

Turning to `Cc1nc(Cn2nnc(CN(C)C(=O)c3ccccc3)n2)sc1C`, the “% Inhibition” value was -8% and the Z score turned out to be 1.38.

Consider `Cc1nn(C)c(Cl)c1C(=O)N1CCc2sccc2C1`, for which the “% Inhibition” value is -11% and the Z score is recorded as 1.68.

`CCn1nccc1CNC(=O)N1CCC[C@H](n2ccc(C(=O)NC)n2)C1`: the “% Inhibition” value was -3% and the Z score came to 0.59.

As to `O=C(Nc1ccc(N2CCOCC2)cc1)[C@@H](c1ccccc1)C1CCCCC1`, the “% Inhibition” value is reported as -36% and the Z score was 4.21.

Take `CC1(O)CN(C(=O)C(C)(C)CC(F)F)C1`: the “% Inhibition” value is recorded as -9% and the Z score was found to be 1.45.

Regarding `CCOC1CC(CC(=O)Nc2cc(Cl)cc3cn[nH]c23)C1` (stereo unspecified), the “% Inhibition” value is -5% and the Z score is 0.98.

For the compound `COCCC(=O)NCCc1noc(C)n1`, the “% Inhibition” value was determined as 2% and the Z score is listed as -0.21.

As to `O=C(c1ccnnc1)N1CC2CCC2(Nc2ncc(C(F)(F)F)cc2Cl)C1` (stereo unspecified), the “% Inhibition” value is listed as 28% and the Z score is -3.58.

For the compound `Cc1ccc(CNC(=O)c2cnn3c(-c4ccc(C)c(C)c4)ccnc23)cc1C`, the “% Inhibition” value is -5% and the Z score worked out at 0.73.

For the compound `NS(=O)(=O)CC1CCN(C(=O)NCC2(C3CC3)CCC2)CC1`, the “% Inhibition” value is reported as -15% and the Z score was determined as 2.69.

As for `CN(CCCCS(C)(=O)=O)Cc1ccc(Cl)cc1Cl`, the “% Inhibition” value was determined as 5% and the Z score is -0.9.

(Values after ChEMBL document CHEMBL4888484, “Replenishing the malaria drug discovery pipeline: Screening and hit evaluation of the MMV Hit Generation Library 1 (HGL1) against asexual blood stage Plasmodium falciparum ,using a nano luciferase reporter read-out” (2022).)
